From PubChem BioAssay AID902 (National Center for Advancing Translational Sciences (NCATS), 2007)
“And” between values parts separate entries of the source, which are not always exact repeats. Identical values can stand only once. In all, about 130,000 compounds went through this assay and about 1,900 (1.5%) were called active. Inconclusive means that the source gave no clear call. Such entries were picked first, then a sample of the others. Calls follow the shape of the dose curve; as a rule, active = well fitted cell-killing curve with a large enough effect; inconclusive = small, poorly fitted or top-dose-only effect; inactive = no such curve, though single readings can be large or run the other way. A potency beside an inconclusive call is a rough fit, not a confirmed value.
% is scaled to controls: 0 for no effect and ±100 for the full control effect; potency is read from the fitted curve at half-maximal effect; tags tell the direction and shape of the fitted curve.

Assay: qHTS Screen for Compounds that Selectively Target Cancer Cells with p53 Mutations: Cytotoxicity of p53ts Cells at the Nonpermissive Temperature; also: nearly all actives have a fitted effect of over 55% in size
Details: H1299-p53A138V viability at 39C, ATP luminescence, 24 h; activity change, negative = cell killing: at 46.1 µM (top of the series)
With CSc1c(C#N)c(N)c(C#N)c2c1COC(C)(C)C2 the “activity change, negative = cell killing” value was inactive: -8.49%. In the case of O=C(NCc1ccc(Cl)cc1)c1cnc2sc(N3CCCC3)nn2c1=O, the “activity change, negative = cell killing” value is reported as inactive: -21.3%. In the case of COc1ccc(C2c3c(n(C)c4ccccc34)C(=O)N2CC(=O)Nc2ccccc2F)cc1 (stereo unspecified), the Potency is reported as inconclusive: 0.0178 µM [cytotoxic, full curve, poor fit]. With Cn1c(=O)n(CC(=O)N2CCN(c3nnc(-c4ccccc4)c4ccccc34)CC2)c2ccccc21 the Potency was inconclusive: 31.6 µM [cytotoxic, single point]. For COc1ccc(N2CC(NC(=O)CCc3ccccc3)CC2=O)cc1OC (stereo unspecified), the “activity change, negative = cell killing” value was inactive: -1.01%. In the case of O=C(C1CC1)N1CCc2cc(Br)cc(S(=O)(=O)NCC3COc4ccccc4O3)c21 (stereo unspecified), the “activity change, negative = cell killing” value is reported as inactive: 2.02%. For CCOC(=O)N1CCc2c(sc3c2c(=O)n(-c2ccc(CC)cc2)c(=O)n3CC(=O)Nc2ccc(C)cc2)C1, the Potency was inconclusive: 10 µM [cytotoxic, partial curve]. In the case of Cc1ccc(-c2nc3nc(C)cc(Nc4ccccc4O)n3n2)cc1, the Potency is reported as inconclusive: 3.16 µM [cytotoxic, partial curve]. For Cc1nc2cnc(N(C)C)nc2n(CCC#N)c1=O, the “activity change, negative = cell killing” value was inactive: -6.36%. In the case of C=CCn1c(-c2ccc(OC)cc2)nc2ccccc21, the Potency is reported as inconclusive: 10 µM [cytotoxic, partial curve]. In the case of C[C@@]12C[C@H](O)[C@@H]3[C@H](CCC4=CC(=O)CC[C@]43C)[C@H]1CC[C@@H]2c1csc(-c2ccccc2)n1, the activity change, negative = cell killing is reported as inactive: -7.8% [at 9.22 µM]. With CCn1c2ccccc2c2cc(NC(=O)COc3cccc(C)c3)ccc21 the Potency was inconclusive: 31.6 µM [cytotoxic, single point]. For CC(=O)c1nc2ccccc2n1S(=O)(=O)c1ccc(C)cc1, the “activity change, negative = cell killing” value was inactive: 0.288%. In the case of CC(=O)N1CCCc2cc(S(=O)(=O)N(C)CC(=O)Nc3cccc(C)c3C)ccc21, the Potency is reported as inconclusive: 25.1 µM [cytotoxic, partial curve, poor fit]. In the case of CCOC(=O)c1sc(NC(=O)CSc2n[nH]c(-c3ccccc3)n2)c(C#N)c1C, the “activity change, negative = cell killing” value is reported as inactive: 12.5%. For Cc1cc(=O)oc2cc(OC(C)C(=O)N3CCCc4ccccc43)ccc12 (stereo unspecified), the “activity change, negative = cell killing” value was inactive: 17.5%. With O=C(Nc1ccc2nc(-c3cccs3)[nH]c2c1)c1cccs1 the Potency was inconclusive: 12.6 µM [cytotoxic, single point]. With CCOc1ccccc1NC(=O)c1nc2nc(C)cc(C(F)F)n2n1 the “activity change, negative = cell killing” value was inactive: -12.1%. In the case of COc1cccc(-c2nc(CS(=O)(=O)CC(=O)Nc3c(C)cc(C)cc3C)c(C)o2)c1, the Potency is reported as inconclusive: 15.8 µM [cytotoxic, single point]. For CN1CCN(c2ncc3nc(-c4cc(F)cc(F)c4)c(=O)n(C4CC4)c3n2)CC1, the Potency was inconclusive: 12.6 µM [cytotoxic, single point]. With CCOC(=O)c1cc(-c2ccc(C)cc2)n(CCC(=O)Nc2ccc(C(C)C)cc2)c1C the “activity change, negative = cell killing” value was inactive: -1.95%. With C[C@@H]1CC2(OC3C[C@@]4(C)C5=CC[C@H]6C(C)(C)C(O[C@@H]7OC[C@@H](O)[C@H](O)[C@H]7O)CC[C@@]67C[C@@]57CC[C@]4(C)C31)OC(O)C1(C)OC21 (stereo partly specified) the “activity change, negative = cell killing” value was inactive: 6.64%. In the case of CCc1ccc(NC(=O)Nc2cccs2)cc1, the Potency is reported as inconclusive: 6.31 µM [cytotoxic, partial curve]. In the case of COc1ccc2c(c1OC)C(=O)N(c1cccc(C(F)(F)F)c1)C2, the Potency is reported as inconclusive: 15.8 µM [cytotoxic, single point]. With COc1ccc(C(=O)Nc2noc3ccccc23)cc1 the Potency was active: 6.31 µM. For O=C(Nc1ccc2oc(-c3ccccc3F)nc2c1)c1ccc2c(c1)OCCO2, the “activity change, negative = cell killing” value was inactive: -29%. With COc1ccc(Cl)cc1NC(=O)CSc1nc(-c2ccco2)cc(C(F)(F)F)n1 the Potency was inconclusive: 12.6 µM [cytotoxic, single point]. With CCc1ccccc1Nc1nc2ccccc2n2cnnc12 the Potency was inconclusive: 25.1 µM [cytotoxic, single point]. In the case of CCOC(=O)C1CCN(C(c2cccs2)c2sc3nc(C)nn3c2O)CC1 (stereo unspecified), the Potency is reported as inconclusive: 10 µM [cytotoxic, partial curve]. In the case of CC(C)N(CCC(=O)c1ccc2ccccc2c1)Cc1ccccc1, the Potency is reported as active: 20 µM and active: 31.6 µM. In the case of CCS(=O)(=O)N1CCc2cc(C(=O)Nc3cc(C(F)(F)F)ccc3Cl)ccc21, the Potency is reported as inconclusive: 0.126 µM [cytotoxic, full curve, poor fit]. With Cc1nc2sc(C(N)=O)c(N)c2c(-c2ccc(Br)cc2)c1C(=O)Nc1ccc(Cl)cc1 the Potency was inconclusive: 3.16 µM [cytotoxic, single point]. For CSc1ccc(CNC(=O)CCn2c(=O)c3cccn3c3ccc(F)cc32)cc1, the Potency was inconclusive: 5.01 µM [cytotoxic, single point]. With Cc1ccccc1C(=O)Nc1ccc2c(c1)CCCN2C(=O)c1cccs1 the Potency was inconclusive: 20 µM [cytotoxic, partial curve, poor fit]. For O=C(Nc1ccccc1)N1CCC(c2ccccc2)C1 (stereo unspecified), the Potency was inconclusive: 10 µM [cytotoxic, partial curve]. With O=c1c(-c2cc(F)cc(F)c2)nc2cnc(N3CCNCC3)nc2n1Cc1ccc(F)cc1 the Potency was inconclusive: 25.1 µM [cytotoxic, single point]. For COc1ccc(-n2c(=O)c3ccccc3n(Cc3ccccc3C)c2=O)c(OC)c1, the “activity change, negative = cell killing” value was inactive: 17.1%. With COC(=O)Nc1nnc(-c2ccccc2Cl)s1 the Potency was active: 12.6 µM. With CCOc1ccc(CNC(=O)C2CCCN(S(=O)(=O)N(C)c3ccc(F)cc3)C2)cc1OC (stereo unspecified) the Potency was inconclusive: 3.55 µM [cytotoxic, partial curve]. For Cc1ccc(-n2ncc3c(Nc4ccccc4C)ncnc32)cc1, the Potency was inconclusive: 12.6 µM [cytotoxic, partial curve]. In the case of Cc1cccc(C)c1NC(=O)Cn1c(=O)n(Cc2ccco2)c(=O)c2ccc(C(=O)NC3CCCC3)cc21, the Potency is reported as inconclusive: 15.8 µM [cytotoxic, single point]. In the case of C=CCNc1oc(-c2cccc3ccccc23)nc1C#N, the “activity change, negative = cell killing” value is reported as inactive: -10.2%. In the case of Cc1ccc(NC(=O)Cn2c(=O)n(CCC(=O)NCc3ccccc3Cl)c(=O)c3ccccc32)cc1, the Potency is reported as inconclusive: 10 µM [cytotoxic, partial curve]. With Cc1ccc2occ(CC(=O)N(Cc3ccc(C(C)C)cc3)C3CCS(=O)(=O)C3)c2c1 (stereo unspecified) the Potency was inconclusive: 31.6 µM [cytotoxic, single point]. With O=C(Nc1ccc(Cl)c(C(F)(F)F)c1)C1CCN(S(=O)(=O)c2cccc3nonc23)CC1 the Potency was inconclusive: 5.01 µM [cytotoxic, full curve, poor fit]. In the case of CCOc1ccc(C(=O)Nc2nnn(CC)n2)cc1, the Potency is reported as active: 12.6 µM. With Cc1ccc2nc(-c3ccc(SCC(=O)O)nc3)[nH]c2c1 the “activity change, negative = cell killing” value was inactive: -14.6%. In the case of O=C(Nc1cccc(Br)c1)c1cc2ccccc2o1, the Potency is reported as inconclusive: 12.6 µM [cytotoxic, single point]. With Clc1cccc(-n2ncc3c(NCCCn4ccnc4)ncnc32)c1 the Potency was inconclusive: 12.6 µM [cytotoxic, partial curve]. In the case of COc1ccccc1Nc1nn2c(=O)c3ccc(C(=O)NCCC4=CCCCC4)cc3nc2s1, the Potency is reported as active: 3.16 µM. For c1ccc(-c2nc3ccccc3o2)nc1, the Potency was inconclusive: 15.8 µM [cytotoxic, single point]. For COc1ccc(Nc2ncnc3c2cnn3-c2ccc(C)cc2)cc1Cl, the Potency was inconclusive: 15.8 µM [cytotoxic, partial curve]. In the case of Cc1ccc2nc(-c3cccc(NC(=O)c4cccc5ccccc45)c3)oc2c1, the Potency is reported as inconclusive: 31.6 µM [cytotoxic, single point]. With Cc1ccc(OCc2ccc(-c3nc(C#N)c(NCc4ccccc4Cl)o3)o2)cc1 the Potency was inconclusive: 31.6 µM [cytotoxic, single point]. In the case of O=C(Oc1ccc(Cl)cc1)c1cc(-c2ccc3c(c2)OCCO3)on1, the Potency is reported as inconclusive: 15.8 µM [cytotoxic, single point]. In the case of COc1ccc(-c2onc(C)c2C)cc1S(=O)(=O)NCC1CCN(Cc2cc(C)ccc2C)CC1, the Potency is reported as inconclusive: 15.8 µM [cytotoxic, partial curve, poor fit]. In the case of CCn1c(=O)c2cc(C(=O)NCCCN3CCC(C)CC3)sc2c2ccccc21, the Potency is reported as inconclusive: 15.8 µM [cytotoxic, single point]. For CCN(C(=O)c1sc2nc3n(c(=O)c2c1C)CCCCC3)c1ccc(OC)cc1, the Potency was inconclusive: 39.8 µM [cytotoxic, single point]. In the case of COc1ccc(-n2cc(-c3ccccc3)c3c(Nc4ccc(OC)c(OC)c4)ncnc32)cc1, the activity change, negative = cell killing is reported as inconclusive: -31.3% [cytotoxic]. For Cc1ccc(C)c2[nH]c(=O)c(CCNC(=O)c3cc4ccccc4o3)cc12, the “activity change, negative = cell killing” value was inactive: -12.3%. For Cn1c(=O)[nH]c(=O)c2c1nc(CN1CCN(c3cccc(Cl)c3)CC1)n2Cc1ccccc1Cl, the Potency was inconclusive: 12.6 µM [cytotoxic, partial curve]. With O=C1C(Cl)=C(NCCN2CCOCC2)C(=O)c2ncccc21 the Potency was active: 5.01 µM. For CCN(CC)CCNC(=O)Cn1cnc2sc(C)c(S(=O)(=O)N3CCOCC3)c2c1=O, the Potency was inconclusive: 35.5 µM [cytotoxic, single point]. In the case of CCOc1nc2cccc(C(=O)OC(C)OC(=O)OC3CCCCC3)c2n1Cc1ccc(-c2ccccc2-c2nn[nH]n2)cc1 (stereo unspecified), the Potency is reported as inconclusive: 25.1 µM [cytotoxic, single point]. For Cc1ccc(C)c(OCCn2c(CCNC(=O)C3CCCCC3)nc3ccccc32)c1, the Potency was inconclusive: 15.8 µM [cytotoxic, single point]. With Cc1ccc(-n2c(=O)c3c(C)c(C)sc3n(CC(=O)NCc3ccccc3)c2=O)cc1C the Potency was inconclusive: 0.794 µM [cytotoxic, full curve, poor fit].
